± gives the standard deviation of the averaged measurements. The list shows a part of the results.
Test system: PfAP2-LT AP2 domain (GST-tagged)
Assay: gcPBM binding intensity (ln(normalized median fluorescence intensity)); higher = stronger DNA binding
Method in brief: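 Binding of GST-tagged P. falciparum DNA-binding domains, expressed in E. coli and used at about 25 μg on average, was carried out for 1 h in 1× PBS containing 1% milk, 0.2 mg/ml BSA, 0.5% salmon testes DNA and 0.03% Triton X-100. The target was an Agilent 4 × 180k array of primer-extended double-stranded 36-bp intergenic genomic probes plus negative controls, read with Alexa488 anti-GST antibody at 488 nm. Binding intensity is the highest Masliner-normalised natural-log median intensity across replicate spots of either probe orientation.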

Sequence | gcPBM binding intensity (ln)
AATCAAAAAAAATGTTGTACGCCTAATTATAATTAA [XGTACX_site8906] | 8.68 ± 0.46
AAAAAACACCCATACACACACACACCGATATATATA [CACACA_site5808] | 10.2 ± 0.24
TATTCGTGCAATAATAGTACACTTATAAATTATTCA [XGTACX_site8993] | 8.52 ± 0.45
AATGAAATAAATAAGGGTACACATAAATATATATAT [XGTACX_site7006] | 9.04 ± 0.43
AAATTATTATGTATTTGTACACATAAGAATATAAAA [XGTACX_site6841] | 8.7 ± 0.32
TATAAATAATGTTAAACACACATACCGATATATAAT [CACACA_site5499] | 9.02 ± 0.4
AATGGGGAAGGTTCTACACACAACGCAAATGCCTTA [CACACA_site2758] | 9.15 ± 0.28
AGAGAAAGAAAGAAATGTACAAATACCTACACACAT [XGTACX_site3140] | 9.26 ± 0.31
TCAGTTAATGTATATGTACACACGGTGAGTATATAT [CACACA_site3346] | 9.11 ± 0.47
ATCCACAAAATAGGATGTACATATAAAATAAATAAA [XGTACX_site5362] | 8.9 ± 0.62
TATGGAATAATACGCGTACACACATATATATATTAA [CACACA_site132] | 9.18 ± 0.38
CATTTTTTATAATAATGTACATGTATTAAAAAAAAA [XGTACX_site6390] | 8.29 ± 0.48
TTTATAAGAATTACTAGTACATATAAGGAATTATAT [XGTACX_site3953] | 8.49 ± 0.42
TTATAAATTTAAAGTAGTACTATACTACTATTTTAT [XGTACX_site3038] | 8.54 ± 0.43
ACATATAAAATATATACACACATATAAATACATTAA [CACACA_site3867] | 9.09 ± 0.38
TATATATCAAAAATATGTACACAGAAATATATATTA [XGTACX_site6997] | 8.79 ± 0.38
TTGCAATAATGTTGCACACTAAATAGTCATATATAA [CACACA_site263] | 8.75 ± 0.38
ATATAATATTACAAATGTACTTTAAAAAATTAGGAG [XGTACX_site3897] | 8.55 ± 0.44
TTGTTTCAAGAAAAAATCGAAAAACATAGAAAAAAA [XGTACX_negctrl_site615] | 8.44 ± 0.46
ATATTTTTGTTCAGGAGTACAGTTCAAGATGAAAAT [XGTACX_site4178] | 8.64 ± 0.42
TTTGGGATATTTACAGTGCAAAGATATTTTTATAAT | 8.46 ± 0.45
TTTTTTATATATGTGTGTGTGTGTGTGTCAAGTTTA [GTGCAC_negctrl_site460] | 10.3 ± 0.24

Sequence | gcPBM binding intensity (ln)
ATAACATAATAGCAACAATTTATTTCCTCTATAACA [CACACA_negctrl_site243] | 8.56 ± 0.42
TTTTAGTGAAATGAGTGTACATTATATATTTTTTTT [XGTACX_site4892] | 8.54 ± 0.39
ATTCTATATATATAAACACACAAATATTTTTATATA [CACACA_site1677] | 8.63 ± 0.48
AAGACTAATCTAGGTAGTACTTATATATCTTTATTT [XGTACX_site4572] | 8.63 ± 0.45
ATATAAGGAAGGGATGCACACAAAAGGGTACATAAG [CACACA_site9328] | 9.28 ± 0.52
AAAAATATAATATATCTAAAATTTTTCATTAAATAT [XGTACX_negctrl_site274] | 8.2 ± 0.52
ACATATATATATTTATATATATATATATATATGTGA [CACACA_negctrl_site613] | 8.96 ± 0.39
TTATATATAGAATAAACATGCATTTGTATATGAATA [TGCATGCA_site604] | 8.55 ± 0.5
ATAAATAAAAATACATGAACAGGTCAGGTTATTTTT [CACACA_negctrl_site1007] | 8.69 ± 0.45
TTTTTTTTTTTTTTTACACACTATAGGGAAAAAAAA [CACACA_site1916] | 8.21 ± 0.37
TCATATTAATTTGATAGTACATATACTTTGAAGTCC [XGTACX_site3767] | 8.61 ± 0.49
TGTATATAAACAAGGGGTACAATAATATAAATAAAT [XGTACX_site8675] | 8.98 ± 0.51
TCACATACATTACTTACACACCATATTAATATATAC [CACACA_site8047] | 9.01 ± 0.4
AATAAAAAATAAAAAATAAACAGTATACATATATAT [GTGCAC_negctrl_site31] | 8.84 ± 0.37
AACAGACATAGACACACACACATATATTTATTTATA [CACACA_site7571] | 9.7 ± 0.38
TTTTTTAAATTTTGAATTATAACTACATTAAAGAAA [GTGCAC_negctrl_site279] | 7.87 ± 0.38
ATGCAAATAATATAAAGTACACAACATCGCCCAAAG [XGTACX_site1825] | 9.37 ± 0.3
CATTATGTCATAAATGCACACATATATATATACATA [CACACA_site8454] | 9.07 ± 0.31
TATTTAAAAGTATATACACACAACTGGAATGAAAAG [CACACA_site4126] | 9.02 ± 0.41
TATGTATGCCCTAATGCATGTGAACAAAATAATATA [TGCATGCA_site407] | 8.81 ± 0.47
TATTTTAATCGTAAGTGTACTCTTTTAAGTATATGT [XGTACX_site8591] | 8.73 ± 0.47
ATTATAACACCTCCCCCCCTTTTTTTATGAAGACCA [CACACA_negctrl_site1043] | 10.1 ± 0.4

Sequence | gcPBM binding intensity (ln)
AAAATTAAAAAAATAAATACATTATATAATTAAAAA [CACACA_negctrl_site1426] | 8.41 ± 0.47
TTTATTAGATAACGATAAACGAAAAAAAAAAAATAA [GTGCAC_negctrl_site81] | 8.54 ± 0.57
ATAATATAAATAAAGCGTACTTAATTTTATATATAT [XGTACX_site4626] | 8.61 ± 0.37
TGTTGTAACAAAAGTACACACACATTTCTATAAATT [CACACA_site8894] | 9.1 ± 0.35
ATTACATAACAATATACACACTATTGATTAAAGAGA [CACACA_site5602] | 8.97 ± 0.42
AAATATATTATATTTAGTACGCATATATAATATGCA [XGTACX_site4835] | 8.49 ± 0.48
ATGAAAATTTATATTGCACACATAGGGAATAAAAAA [CACACA_site8667] | 9.03 ± 0.36
AGTTAATTAATAGGCACACATATATATGTATAAATA [CACACA_site523] | 9.02 ± 0.49
GTAAGAATATTTATAAATGTATAATTTGTATTATTT [GTGCAC_negctrl_site667] | 8.6 ± 0.52
ATCGAAATTTTAGAATATATATGATGTTACTTAAGT [GTGCAC_negctrl_site611] | 8.6 ± 0.35
TAAAATATCATAGATAGTACATATAACGTTTTATAT [XGTACX_site5666] | 8.76 ± 0.42
CATGACATAAAAAATATACACACTATAATATATATA [CACACA_site1402] | 8.96 ± 0.4
TATATATCTATATTTACACACAGTTACTATGTAGAT [CACACA_site7532] | 9.05 ± 0.42
GTTAAACTTAATATCGGTACACACACAAGATAAGAA [XGTACX_site1660] | 9.27 ± 0.54
ATAATATGTATAATCACACATTTTTCTTTTAAGACA [CACACA_site5297] | 8.7 ± 0.42
ACCATATAAATAAACACACACACACCCATATATATA [CACACA_site2321] | 10 ± 0.36
GGTTCATTAAAGTGTACACATAAATACCGTAACATT [CACACA_site6002] | 9 ± 0.47
CTAAGGTATGATTAATCACACACATAAATATATATA [CACACA_site8847] | 9.17 ± 0.59
GTGGCTACTATATATTGTACGATATTATATATATAC [XGTACX_site8376] | 9.04 ± 0.39
AGAATAAGAATTATTAGTACTTATAAATATTATATT [XGTACX_site7228] | 8.51 ± 0.58
CTATTACATTAAATGTGTACATATATATATATATAT [XGTACX_site5233] | 9.49 ± 0.28
TAATTTAAAATATATAGTACACACGTGAACACAAAT [XGTACX_site792] | 9.01 ± 0.38

Sequence | gcPBM binding intensity (ln)
GTAAATACACATATGTGTACATATATATATATATAT [XGTACX_site3696] | 9.67 ± 0.31
TCATCATGTATGTACACACATACATATATTATGTAC [CACACA_site1386] | 9.15 ± 0.32
CTTTTTGAAATATTAACACACATTTTGTTAATGAAT [CACACA_site6087] | 8.67 ± 0.4
TATAAGTAGATAAGGGTGCACAATATAAATATATAG | 9.13 ± 0.61
GGTTAGACGAAATATACATGCAATGGAAAATAAGTT [TGCATGCA_site23] | 9.16 ± 0.49
ATATTAATTTCTCATGCATGTTCTTCCCAATTGTAA [TGCATGCA_site425] | 8.94 ± 0.42
GGAATAAAGACAGCACGTACATATCTTACGAAGCTC [XGTACX_site3918] | 8.86 ± 0.49
CACAAGAAAATTCACACACACACATATATATATATA [CACACA_site3880] | 10.2 ± 0.14
TCCTTAATTCAAAAAATAATATCTTATATTTCAAAT [CACACA_negctrl_site1592] | 8.12 ± 0.48
TGCATTATATTAAATTTTTTATTTGTTGATGTTATA [GTGCAC_negctrl_site371] | 8.57 ± 0.47
TGAAATAAAATTTGTACACACATATTTATTTATATA [CACACA_site6421] | 8.75 ± 0.44
AAATAAAAGATATTTTTACACACTTTTGATGAGATC [CACACA_site9000] | 8.66 ± 0.42
TATTTTTTTTGTCATATATAAGAAACGCTCTTCTTT [TGCATGCA_negctrl_site127] | 8.49 ± 0.47
ATATTTATATTTTCATGTACGTATTTTTATATATAT [XGTACX_site8478] | 9.03 ± 0.4
TATAGATATATACGGTGTACATACATAAAAAAAAAA [XGTACX_site1648] | 8.81 ± 0.59
ATTTTTATTAGTTATTGTACTTATTATTTATTAATT [XGTACX_site2568] | 8.85 ± 0.45
TATAGTCAACTAGTCACACATATAATTATATATATA [CACACA_site5872] | 8.76 ± 0.4
TATAAAGAAATCATTACACACAAATAAATACATACA [CACACA_site2675] | 9.13 ± 0.38
ATATATATACATATAACACACACATATATATATATA [CACACA_site8827] | 9.54 ± 0.42
TAATTCACATTTTATACACACATTCGAACCTTTTTT [CACACA_site3341] | 9.18 ± 0.55
TTGTATTTATTTATGGGAGGATTATAATCATTGTAG [GTGCAC_negctrl_site268] | 8.62 ± 0.37
GTTATACACATATATACACACATATGTAGATATATA [CACACA_site7529] | 9.09 ± 0.26

Reference: the supplement of paper PMC11417369
